The campaign covered roughly 320,000 compounds. About 9,100 (2.8%) were called active. This list was built around the results that the source calls inconclusive (neither active nor inactive); the mix of calls is not that of the screen. Calls come from the whole dose curve; as a rule, active = well fitted activation curve with a large enough effect; inconclusive = small, poorly fitted or top-dose-only effect; inactive = no such curve, though single readings can be large or run the other way. Potencies of inconclusive entries are left out as doubtful fits.
Test: qHTS Assay for Rab9 Promoter Activators; note: nearly all actives have a fitted effect of over 60% in size
Settings: Huh7 Rab9 promoter-luciferase reporter, luminescence, 24 h; series mostly up to 9.22 µM
Procedure, shortened: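 Promoter activation is measured as luciferase luminescence in Huh7 cells stably transfected with a Rab9 promoter–luciferase construct, following 24 h compound exposure at 37 °C and 10 min reagent incubation at ambient temperature.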
Potency is the fitted concentration of half-maximal effect; tags give direction and shape of the fitted curve.

Structure (SMILES)	Potency
O=c1c(-c2nc3ccccc3s2)cccn1Cc1ccc(Cl)cc1	inconclusive [activator, single point]
O=C(O)c1ccc(N/N=C/c2cc3cc4c(cc3nc2Cl)OCCO4)cc1	active: 100 nM
Cc1ccc(C(=O)c2oc3ccccc3c2N)cc1	inconclusive [activator, single point]
Cc1ccc(-c2c3c(nc4sc(C(N)=O)c(N)c24)CCC3)cc1	inconclusive [activator, single point]
N/C(=N\OC(=O)c1cccc2ccccc12)c1ccc(Br)cc1	inactive
CCN(CC)C(=O)C1CCCN(Cc2ccc(F)c(F)c2)C1 (configuration not stated)	inconclusive [activator, single point]
COCCCn1c(C)nnc1SCC(=O)NCc1ccco1	inactive
CC1CCCN(C(=O)COC(=O)c2n[nH]c3ccccc23)C1 (configuration not stated)	inconclusive [activator, partial curve]
CCn1cc(Br)c(C(=O)Nc2ccc(C(=O)OC(C)C)cc2)n1	inconclusive [activator, full curve]
CCC1CCCCN1C(=O)CCCOc1ccccc1 (configuration not stated)	inconclusive [activator, partial curve]
O=C(NN=C1CCCCCCCCCCC1)c1ccncc1	inactive
CSc1ccccc1NC(=O)c1noc(C)c1[N+](=O)[O-]	inactive
CCC(=O)Nc1ccc(NC(=O)c2cc3ccccc3o2)cc1	inconclusive [activator, partial curve]
O=C1C=C(N2CCCCCC2)C(=O)N1c1ccc(Cl)cc1	active: 2240 nM
CSc1ccc(C(=O)C2CCCN(C(=O)CCc3cnn(C)c3)C2)cc1 (configuration not stated)	inactive
Brc1ccc(COc2ncnc3ccccc23)cc1	inactive
O=C(Oc1ccc(-c2cnc3ccccc3n2)cc1)c1cccc([N+](=O)[O-])c1	inconclusive [activator, single point]
O=C(Nc1ccccn1)c1ccc2c(c1)OCCO2	active: 631 nM
O=[N+]([O-])c1cccc(/C=C/c2nc3ccc([N+](=O)[O-])cc3[nH]2)c1	inconclusive [activator, partial curve]
Cc1c(Cl)cnc(NC(=O)CSc2nnc3ccccn23)c1Cl	inconclusive [activator, partial curve]
CCC(=O)NCc1csc(-c2cccs2)n1	inconclusive [activator, partial curve]
Cc1c2ccccc2c(C)c2c1ccc1ccccc12	inconclusive [activator, single point]
CCNS(=O)(=O)c1ccc(CCC(=O)N2CCN(Cc3ccccc3)CC2)cc1	inactive
Nc1ccc2c(c1)COc1ccccc1O2	inconclusive [activator, partial curve]
CC(C)Oc1ccc(C(=O)Nc2ccc([N+](=O)[O-])cc2)cc1	inconclusive [activator, full curve, poor fit]
Cc1c(C(=O)NC2=NCCS2)oc2ccccc12	inconclusive [activator, single point]

Structure (SMILES)	Potency
Cc1cc(SCC(=O)OC(C)C(=O)N(C)c2ccccc2)nc2ccccc12 (configuration not stated)	inactive
Cc1cccc2c(C(=O)N3CCCCC3)cc(-c3ccccc3)nc12	inactive
CCN(CC)CCCCNc1ncc2cc(-c3cc(OC)cc(OC)c3)c(NC(=O)NC(C)(C)C)nc2n1	inactive
O=C(Nc1cccc(S(=O)(=O)N2CCCCC2)c1)c1ccc2ncsc2c1	inconclusive [activator, partial curve]
COc1ccccc1CNC(=O)Cc1csc(NC(=O)Nc2ccccc2OC)n1	inactive
Cc1ccc(N=Cc2sc(O)c3ccccc23)c(C)c1	active: 1000 nM
CC(C)N(CCCNC(=O)Cn1c(=O)c2cccn2c2ccc(F)cc21)Cc1ccccc1	inactive
COc1ccc(C(C)=O)cc1COC(=O)c1cnc(Cl)c(Cl)c1	inactive
COc1ccc(CCC(=O)N2CCc3ccccc32)cc1	inconclusive [activator, single point]
CCCc1ccc2oc(C(=O)N(C)Cc3nccs3)c(C)c2c1	inconclusive [activator, single point]
Cc1nc2cc(NC(=O)NCc3ccccc3)ccc2o1	inconclusive [activator, partial curve]
Cc1ccc2oc(Nc3nc(C)c(C)c(C)n3)nc2c1	active: 2510 nM
Cc1cc(C(=O)COC(=O)c2ccccc2NCCO)c(C)n1CC1CCCO1 (configuration not stated)	inconclusive [activator, full curve]
CCCCSC1(SCCCC)N=C(N)C2(C#N)C(c3ccccc3)NC(C)=C(C)C12C#N (configuration not stated)	inconclusive [activator, single point]
O=C(O)c1cccc(N/N=C(\N=Nc2ccccc2)c2ccccc2)c1	inconclusive [activator, partial curve]
COC(=O)[C@@H]1Cc2c([nH]c3ccccc23)C(C)N1C(=O)c1ccccc1 (some centres not stated)	inactive
O=S(=O)(NCc1ccccc1)[C@@H]1CC2C=CC1C2 (some centres not stated)	inactive
COc1ccc(/C=C\C(=O)NCC(=O)N/N=C/c2cccc(OC)c2O)cc1	inactive
Nc1ccc(O)c2c(=O)cc(-c3ccccc3Cl)oc12	active: 2820 nM
COc1ccccc1CNC(=O)CCCC(=O)n1ncc2cc(C)ccc21	inactive
Cc1ccsc1/C=C1\SC(N2CCOCC2)=NC1=O	inconclusive [activator, single point]
CC1CC(C)CN(S(=O)(=O)c2ccc(NC(=O)c3ccc(=O)[nH]c3)cc2)C1 (configuration not stated)	inactive
COc1ccc(-n2ncc3c(NCc4cccnc4)ncnc32)cc1	active: 1000 nM
O=C(NCCN1CCOCC1)C(=O)NCC1OCCCN1S(=O)(=O)c1cc(F)ccc1F (configuration not stated)	inactive
COc1cc(/C=N/NC(=O)c2nc3ccccn3c2C)cc(OC)c1O	inactive
CCc1nc2ccccc2c(C(=O)Nc2cc(C)ccc2C)c1C	inactive
